Experimental data reported in PubChem BioAssay AID1347120 (National Center for Advancing Translational Sciences (NCATS), 2019).
Screen size: about 390,000 compounds; about 930 (0.24%) were called active. This list was built around the results that the source calls inconclusive (neither active nor inactive); the mix of calls is not that of the screen. Calls come from the whole dose curve; as a rule, active = well fitted activation curve with a large enough effect; inconclusive = small, poorly fitted or top-dose-only effect; inactive = no such curve, though single readings can be large or run the other way. A potency beside an inconclusive call is a rough fit, not a confirmed value.

assay: qHTS for Suppressors of FUS Proteinopathy: Primary screen using FUS-linked yeast assay; note: nearly all actives have a fitted effect of over 55% in size;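 for growth rescue (activation): plate controls were DMSO vehicle for no effect and reference control for full effect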; conditions: S. cerevisiae FUS-expressing, OD600, 24 h; Potency: growth rescue; growth rescue (activation): at 76.6 µM (top of the series)
Summary of the method: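 FUS-expressing yeast, raffinose-pregrown, induced in 2% galactose minimal medium at OD 0.005; compounds in a dilution series, 24hr at 30C. Growth restoration read as absorbance at 600 nm. CP55940 positive control, DMSO negative.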
Potency is the fitted concentration of half-maximal effect; tags give direction and shape of the fitted curve.

Row | Compound | Potency | growth rescue (activation)
1 | CCNC(=S)Nc1ccc2ncoc2c1 | inactive | –
2 | NC(=O)c1ccccc1NC(=S)NC(=O)CCc1ccccc1 | inactive | –
3 | COc1ccc(NC(=O)CSc2ncn(-c3ccccc3)n2)cc1Cl | inconclusive: 31.6 µM [activator, partial curve, poor fit] | –
4 | Cc1cccc(NC(=O)C2CCCN(S(=O)(=O)c3c(C)noc3/C=C/N(C)C)C2)c1C (centres undefined) | inconclusive: 50.1 µM [activator, single point] | –
5 | Cc1ccc(CN2CCN(/N=C/c3ccco3)CC2)c(C)c1 | inconclusive: 50.1 µM [activator, single point] | –
6 | CCC(Sc1nncn2c1cc1sccc12)C(=O)Nc1cccc(OC)c1 (centres undefined) | inconclusive: 35.5 µM [activator, single point] | –
7 | CC(=O)c1c(O)c(C)c(O)c2c1OC1=CC(=O)C(C(C)=O)C(=O)[C@@]12C (some centres undefined) | inconclusive: 50.1 µM [activator, single point] | –
8 | O=C(NCc1ccccc1)C1C(c2ccc3c(c2)OCO3)=Nc2ccccc2N1C(=O)c1ccco1 (centres undefined) | inactive | –
9 | O=c1cc(N2CCCCC2)c(-c2ccccc2)nn1Cc1ccccc1 | inconclusive: 28.2 µM [activator, partial curve, poor fit] | –
10 | Cc1cc(/C=C2\NC(=O)NC2=O)c(C)n1-c1ccc(N2CCOCC2)cc1 | inconclusive: 39.8 µM [activator, partial curve, poor fit] | –
11 | CCN(c1ccccc1)S(=O)(=O)c1ccc(NN)nc1 | inconclusive: 50.1 µM [activator, single point] | –
12 | Cn1c(=O)n(C)c2cc(S(=O)(=O)Nc3ccccc3C(=O)O)ccc21 | inactive | –
13 | COC[C@H]1CCCN1c1ccc2c(c1)O[C@H](C)CCN(C1CC1)S2(=O)=O | inactive | –
14 | CC(C)NC(=O)NC(=O)CSc1nncn1C | – | inconclusive: -0.773% [activator]
15 | CCN1C(=O)[C@H]2[C@@H](c3ccc(-c4ccc(OC)cc4)cc3)N3CCC[C@@]3(C(=O)OC)[C@H]2C1=O | active: 28.2 µM | –
16 | C=CCNC(=S)NNc1nc2c(c(=O)[nH]1)C1(CCCCC1)Cc1ccccc1-2 | inconclusive: 28.2 µM [activator, single point] | –
17 | CCOc1ccccc1NS(=O)(=O)c1c(-c2ccc(C)cc2)csc1C(=O)OC | inconclusive: 35.5 µM [activator, partial curve] | –
18 | COc1cc(-n2c(C)nc3cc(C(=O)N4CC(C)CC(C)C4)ccc32)cc(OC)c1OC (centres undefined) | inactive | –
19 | COc1ccc(-c2cc(NC(C)=O)c3ncc(-c4ccc(F)cc4)n3c2)cc1OC | inconclusive: 25.1 µM [activator, single point] | –
20 | CC[C@]12c3[nH]c4cc(-c5ccco5)ccc4c3CCN1C(=O)[C@@H](CC(=O)NCCCOC)C[C@@H]2C(=O)N1CCN(C(=O)c2ccco2)CC1 | inconclusive: 25.1 µM [activator, single point] | –
21 | CCOC(=O)C1CCN(C(=O)COC(=O)c2nc3nc(C)cc(C)n3n2)CC1 | inactive | –
22 | COc1ccc(N2CCN(C(c3cc4cc(C)ccc4[nH]c3=O)c3nnnn3Cc3ccccc3)CC2)cc1 (centres undefined) | active: 8.91 µM | –

Row | Compound | Potency | growth rescue (activation)
23 | O=C(Cc1ccc(F)cc1)N1CCC(c2nc3c(nnn3Cc3ccc(Cl)cc3)c(=O)[nH]2)CC1 | inconclusive: 31.6 µM [activator, single point] | –
24 | Cc1cc2nc3ccc(=[N+](C)C)cc-3sc2cc1N | inconclusive: 35.5 µM [activator, partial curve, poor fit] | –
25 | COc1nc(-c2cccs2)cc(-c2ccc(C)cc2)c1C#N | inactive | –
26 | COc1ccc(C)cc1NC(=O)C(=O)NCCc1csc(-c2ccc(C)cc2)n1 | inactive | –
27 | Cc1coc(C)c1C(=O)CC1(O)C(=O)N(CCc2ccccc2)c2ccccc21 (centres undefined) | inconclusive: 35.5 µM [activator, partial curve, poor fit] | –
28 | Cc1ccc(NC(=O)CN2CCN(c3ccccn3)CC2)cc1S(=O)(=O)N(C)C | inconclusive: 28.2 µM [activator, single point] | –
29 | CCCCn1c(N)c(N(C(=O)CSc2nncn2-c2ccccc2C)C2CCCC2)c(=O)[nH]c1=O | inconclusive: 22.4 µM [activator, partial curve] | –
30 | O=C(CCCCCn1c(SCC(=O)c2ccccc2)nc2ccccc2c1=O)NCc1ccco1 | – | inconclusive: 60.2% [activator]
31 | CCc1ccccc1NC(=O)c1cc(S(=O)(=O)NCCc2ccc(OC)c(OC)c2)ccc1F | inconclusive: 28.2 µM [activator, single point] | –
32 | CC(C)c1ccc(C(=O)N2CCOCC2c2cc(C(=O)Nc3ccccc3)no2)cc1 (centres undefined) | inconclusive: 39.8 µM [activator, single point] | –
33 | N#Cc1cccc(NC(=O)N2CCC(c3nc4c(nnn4Cc4cccc(Cl)c4)c(=O)[nH]3)CC2)c1 | inconclusive: 15.8 µM [activator, single point] | –
34 | Cc1ccc(-n2c(C)cc(C(=O)COC(=O)c3ccc[nH]c3=O)c2C)cc1C | inconclusive: 20 µM [activator, single point] | –
35 | Cc1ccc(Nc2c(-c3ccc(C)cc3)nc3cnccn23)cc1 | inconclusive: 50.1 µM [activator, single point] | –
36 | O=C(CCCN1C(=O)/C(=C/c2cccs2)SC1=S)Nc1cccc(O)c1 | inactive | –
37 | Nn1c(SCC(=O)N2c3ccccc3Sc3ccc(Cl)cc32)nnc1-c1cc(-c2ccc(F)cc2)n[nH]1 | active: 14.1 µM | –
38 | CCCCC(=O)Nc1cccc(OCc2cc(=O)n3ccccc3n2)c1 | inactive | –
39 | O=C(COC(=O)CNC(=O)c1ccccc1Cl)NC1CCCC1 | inactive | –
40 | NCCc1nnc(SCc2ccc(Cl)cc2)o1 | inactive | –
41 | CCOC(=O)c1oc2cc(O)ccc2c(=O)c1-c1ccc(OC)cc1 | inconclusive: 12.6 µM [activator, partial curve, poor fit] | –
42 | CCCOc1ccccc1C(=O)N1CCC(c2nc3ccccc3s2)CC1 | inactive | –
43 | Cc1ccc2ccc(C(Nc3ccccn3)c3ccccc3)c(O)c2n1 (centres undefined) | inactive | –
44 | COc1ccc(/C=C/C(=O)C2C(=O)C=C(C)OC2=O)cc1O (centres undefined) | inconclusive: 39.8 µM [activator, partial curve, poor fit] | –

Row | Compound | Potency | growth rescue (activation)
45 | COc1ccc(-c2oc3c(c2C#CC2(O)CCCCC2)C(OC(C)=O)CCC3)cc1 (centres undefined) | inconclusive: 17.8 µM [activator, partial curve, poor fit] | –
46 | NC(=O)c1c(NC(=O)COC(=O)c2ccc(S(=O)(=O)Nc3ccccc3)cc2)sc2c1CCCC2 | inconclusive: 12.6 µM [activator, partial curve, poor fit] | –
47 | CCOc1ccc(CCN2C(=O)C(=O)N([C@@H](CC(C)C)CN3CCC[C@H]3CN3C(=O)C(=O)NC[C@@H]3Cc3ccccc3)C[C@@H]2Cc2ccccc2)cc1 | inconclusive: 7.94 µM [activator, partial curve, poor fit] | –
48 | Cc1ccc(C(C)C)c(OCC(=O)Nn2c(C)nc3ccccc3c2=O)c1 | inactive | –
49 | COc1cccc2sc(N3CCN(c4nc5ccccc5s4)CC3)nc12 | inconclusive: 0.794 µM [activator, partial curve, poor fit] | –
50 | C[C@@H]1CCCCO[C@H](CN(C)C(=O)Nc2cccc3ccccc23)[C@@H](C)CN([C@H](C)CO)C(=O)c2cc(NC(=O)c3ccccc3)ccc2O1 | inconclusive: 17.8 µM [activator, partial curve, poor fit] | –
51 | C=C(C)C(=O)N1CC2(CC(c3cccc(NC(=O)CC(c4ccccc4)c4ccccc4)c3)=NO2)C[C@H]1C(N)=O (some centres undefined) | active: 31.6 µM | –
52 | C=CCC[C@H](Cc1ccc(F)cc1)C(=O)OC[C@H](Cc1c[nH]c2ccccc12)NC(=O)[C@@H](CC=C)CC(=O)N(CCO)Cc1ccccc1 | active: 15.8 µM | –
53 | COc1ccc(S[C@]2(C(=O)N3CCOCC3)CC(=O)N(c3ccc(Cl)cc3)[C@@H]2c2ccc(OC)cc2)cc1 | inconclusive: 35.5 µM [activator, partial curve, poor fit] | –
54 | O=C(Cn1c(-c2cccs2)cc2ccccc21)N1CCN(c2ccccc2F)CC1 | inactive | –
55 | COc1cccc(/C=C2\Oc3cc(OCC(=O)N4CCCCC4)ccc3C2=O)c1OC | inconclusive: 17.8 µM [activator, single point] | –
56 | Cn1ccc2c(-c3ccc(C(N)=O)cc3)cc3c(c21)C1CCC3C1 (centres undefined) | inconclusive: 28.2 µM [activator, single point] | –
57 | COc1ccc(NC(C)C(=O)Nc2cc(C(F)(F)F)ccc2N2CCOCC2)c(OC)c1 (centres undefined) | inconclusive: 28.2 µM [activator, single point] | –
58 | CC1CCCCC1NC(=O)Cn1cnc2sccc2c1=O (centres undefined) | inconclusive: 3.55 µM [activator, partial curve, poor fit] | –
59 | COc1cc2c(cc1OC)CN(C(=O)c1ccc(Br)o1)CC2 | inactive | –
60 | COc1cccc(Cn2cnc3c(NS(=O)(=O)c4cccc(Cl)c4Cl)c(C)c(C)cc32)c1 | inconclusive: 17.8 µM [activator, partial curve, poor fit] | –
61 | Clc1ccc(OCCCc2nc(-c3cccnc3)no2)c(Cl)c1 | inconclusive: 28.2 µM [activator, partial curve, poor fit] | –
62 | COC(=O)[C@]1(CNS(=O)(=O)c2ccc(F)cc2)CC(=O)N(C)[C@@H]1c1ccccc1 | inactive | –
63 | O=C(Cn1ncc2c3ccccc3n(Cc3ccc(F)cc3)c2c1=O)N1CCN(c2ncccn2)CC1 | inconclusive: 39.8 µM [activator, single point] | –
64 | CCN1C(=O)[C@H]2[C@@H](c3ccc(-c4ccc(OC)cc4)cc3)N3CCCC[C@@]3(C(=O)OC)[C@H]2C1=O | inconclusive: 11.2 µM [activator, full curve] | –
